# The other results are listed elsewhere or left out.
# System: PfAP2-HC AP2 domain (GST-tagged)
# Assay: gcPBM binding intensity (ln(normalized median fluorescence intensity)); higher = stronger DNA binding
# How it was run: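 Binding intensity is defined as the maximum Masliner-normalised natural-log median intensity across replicate spots for either probe orientation. It was measured on an Agilent 4 × 180k array of primer-extended double-stranded 36-bp intergenic genomic probes and negative controls, to which GST-tagged P. falciparum DNA-binding domains made in E. coli were applied for 1 h in 1× PBS with 1% milk, 0.2 mg/ml BSA, 0.5% salmon testes DNA and 0.03% Triton X-100. Detection was by Alexa488 anti-GST antibody and scanning at 488 nm.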
row,Sequence,gcPBM binding intensity (ln)
1,AAAAAAAAAAAAAAAACACACATACATACATACATA [CACACA_site6125],10.3
2,TTTTTTTTTTTTTTTGCACACACCATATTTATAGAA [CACACA_site3310],10.2
3,AGAAAAGTGATATATACACACTTATATTTATTTATA [CACACA_site7350],9.66
4,TTATTTTATTTTTTTGTGCACATATATATTTATAAA [GTGCAC_site9615],9.72
5,ACGTGTGATTATAATTGTACTTTAATGTAAGAATGA [XGTACX_site1109],9.85
6,ATATATATATATATATGTACTTATAATAATATTCAA [XGTACX_site2593],9.79
7,ATTTATATATAAATGTGTACATATATATATATAAAC [XGTACX_site7592],9.72
8,ATTGTAAGTAAACACACACACATATATCTGTATTTA [CACACA_site4542],10.5
9,TACCATGTTCAAATTACACACATATAATGCAATATA [CACACA_site7034],9.77
10,CTGAAATTAACAAAAGTGCATAAAAATAAAAAATAT [GTGCAC_site9652],9.68
11,TCACATTTTGGACACGTGCACATATATTTGATACAT,9.82
12,AAAATTAATTATTACAAAAATGAAAAGACATATTTT [GTGCAC_negctrl_site735],9.54
13,TTTTTTTACAACATTACACACAAATATTCTGGGTTA [CACACA_site3755],9.75
14,AATATTATATTAAAATGTACAAAAATGAATTACTTT [XGTACX_site1473],9.62
15,CAATGCAAGGCTTAAAAAAATGGGCATATTATATAT [GTGCAC_negctrl_site304],9.47
16,AAAAAGGAAATTTACACACACATATAATATACATTA [CACACA_site3296],10.1
17,ATTTACCAGACCATATGTACATACATAAAACACACA [XGTACX_site3788],10.3
18,GGAATTGAAAAATCAGCACACACACTAATACATACA [CACACA_site9059],10.3
19,AATAATTGTTAAAGGTGTACAATACCTACATAAGAA [XGTACX_site4215],9.87
20,AAATGGCAATAATGGACACACAAATGTTGTTATATA [CACACA_site2819],9.84
21,TCATATATCCTTATCACACATATAATAAATTCCCTT [CACACA_site4457],9.65
22,AATATTTCTCATTTTGTGCACTGAAAAATGTAATAT,9.61
23,TTCTTTGCTTTTCAAACACACAAAAGTTATTATAGT [CACACA_site6390],9.8

row,Sequence,gcPBM binding intensity (ln)
1,GTTCTACAAGCCACTGCATGCTGATATAGAATAAAT [TGCATGCA_site138],9.52
2,ATATGATTATTATTATATAAATTATAAAGTCTAATA [GTGCAC_negctrl_site586],9.32
3,TATATTAAACTTTGCACACATAATTTAACTACAAAG [CACACA_site3441],9.74
4,AATCATTTATTGATGGTGCAATATACCATCTAATGA [GTGCAC_site9440],9.41
5,ATATATATATATATATGTACTTAAAAAATATATACA [XGTACX_site8952],9.6
6,AAAAAAAAAAAAAAAAAAAAAAAAAAAATACGAAAG [GTGCAC_negctrl_site729],9.46
7,CTTTTTAATTAATACACACACACACGGATATAAATA [CACACA_site7145],10.4
8,TATTTTTTTTGTGTGTGTCCTCATGTAATACTGCAA [XGTACX_site1380],10.2
9,CATAATACATATAACACACACAATTATACATAAAAT [CACACA_site3233],10.8
10,AAAAAAAAAAAACACACACACACACCCAAATATATA [CACACA_site150],10.6
11,TAAAAATGGAAACACACACACATAAATATATTTTAT [CACACA_site2513],10.4
12,ATTTCTATAAAAATAATCTACATTTTTTTTTTTTTT [CACACA_negctrl_site917],9.23
13,TATATACATATATATATATGTATAGATAGATACATT [CACACA_negctrl_site1511],9.63
14,TAACCACAATTTTAATGTACATATATATTTATATAT [XGTACX_site8968],9.76
15,TTTTGAAAAAATTTTTATAAAAGAATAAAATTATTA [XGTACX_negctrl_site570],9.23
16,AATATTTTACAATACACATGCAAATAATATTCTAAA [TGCATGCA_site618],9.64
17,ATATTATTTATGTATGCATGCGGCGAAATGGGCTTG [TGCATGCA_site28],9.62
18,AATGGGTTACACATATGTACATAAAATATAAAAAAT [XGTACX_site3440],9.81
19,TCTCATTTTCCCTAAAAAAAAAAATAAATAAAAATA [TGCATGCA_negctrl_site580],9.07
20,TTTTTCCATATTGTAGCATGCAGTATATATATCATG [TGCATGCA_site530],9.66
21,CACTAATAGTGGATTACACACATATATATGTATATA [CACACA_site2531],9.75
22,CGCGAAGTAGCATTCACACACAGCAAAATATATATA [CACACA_site3495],9.91
23,ACTTACACATTTATTACACACATAAAGGAAAATTTT [CACACA_site1356],9.79

row,Sequence,gcPBM binding intensity (ln)
1,ATATTTAAATGGATCACACATATATATATATATATA [CACACA_site5255],9.55
2,TTAAAAAATAACAAGGTGCAAATAGGTTTATAAAAT,10
3,TTTTTAACATTTAAATGTACATGTTACAATTTAAAG [XGTACX_site8789],9.42
4,TTTTTATTTTTATACATATAATATATTATGATTAAA [CACACA_negctrl_site214],9.41
5,ACAGCATAATCATGCTGTACATTATTTTCTTAAGTA [XGTACX_site8456],9.37
6,AGAGACTTAGAAAACACACATACATAAGATAATTTA [CACACA_site2377],9.99
7,TGCAAAAAATTCCACACACACACACGCATATAAATA [CACACA_site6696],10.6
8,TAAAATAAAAGTGAAACACACAGTATTTTACAACAT [CACACA_site3811],9.83
9,AAAATAGCTGTATAGAGTACATATAAATAATGTTGT [XGTACX_site5692],9.75
10,CATTTTTCTATATGTGCATGTAAGATAAGAATAATT [TGCATGCA_site107],9.37
11,TCATATAATATTTATATGCACACTTTTCTATATATA [CACACA_site4075],9.91
12,TTTCGTCATTTTGTTTTTAATTCTACAATTTAGTTA [XGTACX_negctrl_site286],9.66
13,TTTTGAAGAAAATTCTTTTTTTTTTTTTTTTGTAAA [CACACA_negctrl_site102],9.03
14,ATATAATGACAAGTATAAGTATCACAAAGAAATAAA [CACACA_negctrl_site1403],9.79
15,CCACTTTTTGAAGACACACACAAAAAAAAAAAAAAA [CACACA_site2551],9.55
16,CAAGCTTTTTCCTTTACACACATTAATTATATATAT [CACACA_site1423],9.96
17,ATAACAATTATTTGTCGACACACGTATATGTTATTT [CACACA_site1766],10.1
18,CAAAATAAAAAATTCACACACATATAAATATAAATA [CACACA_site7065],10.4
19,AAAAAAAAAGGTACTACACACTATTATCAATAGAAA [CACACA_site91],9.79
20,TACTTATTATGAAACACACACCAAAACTACAGAATA [CACACA_site6265],10.5
21,ATATATATATGTATATGTACATATATATACACATAT [XGTACX_site140],9.85
22,TAAATATATTTATATTGTACATTTATGTTGATACCA [XGTACX_site228],9.35
23,TTTTGTGAATTTTAGATTTTTTAATACAAGAATATT [CACACA_negctrl_site606],9.1

row,Sequence,gcPBM binding intensity (ln)
1,ATATTTACCACTGTATGTACATATATAAAATATATC [XGTACX_site6373],9.85
2,TATATATATAATATATGTACTGATATGCTATTTACT [XGTACX_site841],9.78
3,ATTTAATTTATTATGTGTACTTATTTAATTAAATTA [XGTACX_site3171],9.62
4,TTATATATTTATAAATGTACATATAATTTTTTTATA [XGTACX_site4696],9.52
5,CTGATATATAGATGTAGTACATAAAAATGACGAATT [XGTACX_site5612],9.91
6,ATATTTTTATTTAAATCACATCATTTTGTTTATTTG [CACACA_negctrl_site1056],9.8
7,CATATAATTATTGAAAGTACATACAAATAAAAAGAT [XGTACX_site6535],9.82
8,AAAAAAATAAAATGTTCACACATTTCACAATTACTT [CACACA_site4859],9.75
9,TGAGCACAAATACAGGTGCATATAAAATATATGACG,9.85
10,AGAGGCCAGCTTTCTCTTCTAAACATGTACAAAAAT [GTGCAC_negctrl_site98],9.37
11,AATAGTTAAATGTACACACTAACTACATGGAATATA [CACACA_site3262],9.83
12,TATATATAAAACATATGTACATATATATATATATAT [XGTACX_site419],9.63
13,ATATTTTATAATTTTACACACCATATAAAATAATTC [CACACA_site2797],9.64
14,ACATGAAACTATAAACGTACATACATACATATATAT [XGTACX_site5011],9.88
15,AAGTAAAAAAATAGCACACACACAAAAACACCCACA [CACACA_site1291],10.8
16,ATATATATATAGTGCACACATATAAAATATATATAA [CACACA_site2745],10.1
17,TATAATATATATAGGAGTACGTATGTATATTTATAA [XGTACX_site3521],9.83
18,TTTACAGATACTTGCTCACACATATGTATAAAAATA [CACACA_site4928],9.61
19,TGTATGTTTATTTGATGTACGGTCATACATATAAAT [XGTACX_site5176],9.61
20,AAATTCATATGAATTTGTACGGACATAAATATCTTC [XGTACX_site1838],9.66

# Reference: the supplement of paper PMC11417369
